Experimental data: the supplement of paper PMC3334620
In all, about 33,000 sequences were measured (“E-score (-0.5 to 0.5)”: median about -0.032, highest 2% from about 0.36 on). The list shows a part of the results.

The sequences below were run against T1, Sko1 (UniProt Q02100) (assay: PBM E-score (8-mer binding enrichment) (E-score (-0.5 to 0.5)); higher = stronger / more preferred TF binding; most listed sequences are background and not binding sites). Settings: protein concentration: 200 nM; construct: GST-full length.
T1 sequence: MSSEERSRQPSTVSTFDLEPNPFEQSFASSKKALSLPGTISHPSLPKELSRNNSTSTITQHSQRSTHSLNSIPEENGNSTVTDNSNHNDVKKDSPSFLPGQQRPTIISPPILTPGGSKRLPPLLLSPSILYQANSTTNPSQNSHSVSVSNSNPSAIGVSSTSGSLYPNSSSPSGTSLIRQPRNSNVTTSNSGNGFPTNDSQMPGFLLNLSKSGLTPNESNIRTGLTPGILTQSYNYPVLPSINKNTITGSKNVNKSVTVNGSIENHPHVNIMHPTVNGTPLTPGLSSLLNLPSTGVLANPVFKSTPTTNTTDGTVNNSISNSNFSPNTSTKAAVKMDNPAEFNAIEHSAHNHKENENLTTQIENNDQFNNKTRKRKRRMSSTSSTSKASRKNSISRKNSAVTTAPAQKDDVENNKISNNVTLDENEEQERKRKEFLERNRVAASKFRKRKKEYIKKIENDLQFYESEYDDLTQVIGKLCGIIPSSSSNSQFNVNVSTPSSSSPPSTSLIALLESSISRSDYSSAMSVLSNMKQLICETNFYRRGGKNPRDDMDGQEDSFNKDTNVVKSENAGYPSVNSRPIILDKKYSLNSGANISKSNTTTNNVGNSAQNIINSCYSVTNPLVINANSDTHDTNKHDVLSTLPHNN
Procedure, shortened: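 Each ungapped eight-base word and its reverse complement, pooled, received an E-score from the Universal PBM Analysis Suite. Underlying scans, normalised with masliner, recorded fluorescent anti-GST bound to GST-tagged yeast transcription factors. These were applied at about 100-200 nM to universal all-10-mer Agilent arrays double-stranded by primer extension.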

Sequence	PBM E-score
ACTTGTTC	0.0603
AATGAATT	0.198
GAAGAACC	-0.163
CCTCCCGC	-0.0494
ACAGGACC	-0.311
AGTGGGTA	-0.189
GTTGGGGA	-0.0358
AGCATCCC	-0.229
CACATGGG	-0.344
AGACCGAT	-0.152
CACGCAGA	0.0703
AAAAACGA	0.264
TATGGGAA	-0.0612
ACTACAAC	0.0201
TCTCCGCA	-0.107
CAGGTACC	-0.136
GAAGCGTC	0.0877
GAACGGGC	-0.259
CCTCCTCG	0.0848
AGTCTGCG	-0.281
CCCGACAC	-0.249
ATCCCATA	-0.127
CAAGTTGG	-0.0274
CATGGTCC	-0.035
AGTCACAA	0.0671

Sequence	PBM E-score
ATACTGCG	-0.146
GCAAGCCC	-0.0618
CATGCGGC	-0.0261
ATAGCAAA	0.16
GTATGAGA	0.125
ATGAGGAA	0.0995
AAGCGCGG	-0.193
CCAAGCGA	-0.233
CACTCTCC	-0.134
CCTTAATA	0.0379
GATGCATA	-0.0156
CCCCCCCA	-0.32
ACTGGTGA	-0.068
GGTACAGA	-0.136
CAAGATAG	-0.136
CATCCTGC	-0.163
GCGATTAC	0.144
GACCGCGA	-0.305
CCACTCAC	-0.0544
GCGTGAGA	0.179
ATTTTTGC	0.216
AACCTTTC	-0.273
ATTGTCGG	-0.177
CGGAAAAG	-0.161
AAGAGAGT	-0.0858

Sequence	PBM E-score
AACCAGCA	-0.289
CTAGAGCC	-0.291
CCACAACC	0.00126
CAATATTC	-0.143
CTCATTTA	0.0493
CCAGGAAC	-0.196
ATGCGGGG	-0.185
AGGTCCAA	-0.225
CAGGATAA	-0.045
AACGGATT	0.196
GCAATGGC	-0.166
TCAAGGCA	-0.274
AGCCAGAA	-0.162
CCTCGGAG	-0.269
AACTGAAG	0.0972
AGACAGTC	-0.136
ACTGGGCG	-0.267
ACGGTGCA	-0.0207
CTCGGGAC	-0.22
TACTGTGA	-0.00209
GGGACACC	-0.374
ACGTTGTA	0.394
CAAGTGCC	-0.277
TACAAAGA	0.134
CCGGACCG	-0.17

Sequence	PBM E-score
ACCGATAG	-0.131
AGCAATCC	-0.149
CATCAGAG	0.0221
CCGGCGGA	-0.16
GCTTGAAC	0.176
CGTCCGCC	-0.0968
GATGCGGA	-0.124
GTCTCTCA	-0.084
ATAATACC	0.138
CCTGGAAC	-0.0359
GGGTGCAC	-0.0658
CCAGATCA	0.0904
AGGTCAAC	0.0141
ATCGTCGA	-0.106
GCTAGAAC	-0.115
CCTGGCCA	-0.18
AAGGATGG	0.00772
GGGCTGCA	-0.176
GGCTGTAC	-0.0592
ATCGACCC	-0.114
GGTAATGA	0.115
CAAATTAG	0.104
AAATGTTA	0.218
AAGAGGGC	-0.201
ACTGTCCC	-0.247

Sequence	PBM E-score
TAGTCGCA	-0.145
CGAATGCG	0.101
CTCAGCCA	-0.0969
GCCAAAAC	0.0138
CACACCCG	-0.189
TAATAAAA	0.302
CAGGGCCA	-0.32
CTGATTTC	0.105
AACGCTAT	0.12
ACGATCCT	-0.064
ATCTACGA	0.0563
AAGTTATG	0.231
ACTGGGAA	0.0438
GAAGTATC	0.0123
ACGTGAGT	0.331
CAACCAGG	-0.155
AATCGCTC	-0.231
CCGGTAGA	-0.192
ACCTATAT	0.257
TACGACCA	0.0862
AGAGCACA	-0.166
AGCTCCAG	-0.228
CCGCGATA	-0.0398
CATTTTAA	0.0361
GCACGAGA	-0.177

Sequence	PBM E-score
GCCGGTTA	-0.155
CAATTAGA	0.128
CACGTGAC	0.387
CATCATGG	0.132
GCTTTTGA	-0.197
CCATCGGC	-0.301
CTCTTCAC	-0.203
AATAATCA	0.194
AGAGAACT	-0.0485
CCGGTGTC	-0.192
ACTTGGTG	-0.268
ACAGCGTG	0.0478
GACTTCAA	-0.0809
AGCCCGAA	-0.264
CAAGTCGA	-0.0679
CGCACGAA	0.165
AAGAGCAG	-0.143
GGTTTATA	0.0242
GATCGTCA	0.321
ACTCGGAT	0.05
TCGCTCCA	0.0407
GCACAACA	0.0216
AAGCTATG	0.0671
CCCCGCGG	-0.257
AGGACGCA	-0.117

Sequence	PBM E-score
GGTCGCTA	-0.183
ACCACTGC	-0.196
ATATCAGA	-0.00647
TCCTCCGA	-0.278
GTAGATAA	0.217
TCGCCGAA	0.0579
CGTGTTTC	0.246
ACACAAGT	0.108
TAAGTCCA	0.0254
GACGCCCC	-0.148
ATTCTCTA	0.132
CCAGATGC	-0.0851
CCAAAGAC	-0.098
ATCGCCAG	-0.186
ATAACCAG	0.159
AATGAGAT	0.199
AAGCGTAG	-0.0528
GCTAGACC	-0.17
ATGCAGGA	-0.157
GTTACGTA	0.483
CATAGAAA	0.177
AACGATGT	0.135
